We go through 172 sequences from article PMC6212790.

This is one part of the list. At the low end of the ranking, values are background and their order means little.

This test addresses T1, GST-Rok-C97-191 (UniProt O34857).
T1 sequence: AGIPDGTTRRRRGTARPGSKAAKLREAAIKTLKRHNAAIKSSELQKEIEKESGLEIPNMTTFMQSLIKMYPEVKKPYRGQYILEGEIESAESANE
In words: protein binding microarray.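 Note: rank score from −0.5 (least bound) to 0.5 (best bound).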 The conditions noted are these: Rok is a gene silencer of Bacillus subtilis; high values mean tight binding; most listed sequences are background and not binding sites; double strand, one strand shown.
In turn, ACTCGCAG had a binding signal of -0.105 E-score.
Sequence GAGCCTGC displayed a binding signal of -0.0866 E-score.
GAGAGCGA gave a binding signal of -0.0867 E-score.
On to CTGATACA, for which the binding signal came to 0.166 E-score.
Under ACCAACGT stands 0.0973 E-score; under GAGGGGGC, -0.379 E-score.
As for AAAGTGGC, the figure is -0.00226 E-score.
Under AGCGCAAA stands 0.09 E-score; under AAAGCGGA, 0.152 E-score.
Sequence AATTTATC yielded a binding signal of 0.233 E-score.
In the case of TAAGAATA, the binding signal was found to be 0.162 E-score.
As for GCCATCGC, the figure is -0.142 E-score.
As for CGACTAGC, the figure is 1.3e-05 E-score.
As for AAACGCAC, the figure is -0.0855 E-score; as for ATTGCACC, 0.0239 E-score.
ATAAGCCC gave a binding signal of -0.0847 E-score.
As for GACCCACA, the figure is -0.038 E-score; as for ACAACGCT, 0.00207 E-score; as for TCATTGAA, 0.0482 E-score.
As for AGAGAGAA, the figure is -0.0177 E-score.
As for AAATATAC, the figure is 0.401 E-score.
ACATAGTA showed a binding signal of 0.298 E-score.
Under CGGGGTAG stands 0.00851 E-score.
Under CCCACCCC stands -0.295 E-score; under GCTAAACC, 0.00369 E-score; under ATCCTCGC, -0.169 E-score.
As for CCGGTCGA, the figure is -0.00159 E-score; as for AACTCGGA, 0.0454 E-score.
AAGTGACA: the binding signal was -0.055 E-score.
In the case of CCAACGAC, the binding signal is -0.172 E-score.
As for GTCGTCAC, the figure is -0.118 E-score; as for CACGGGAG, -0.217 E-score; as for GGCTGGGA, -0.344 E-score.
Under TAATGGGA stands -0.157 E-score; under CGCCGCCC, -0.41 E-score.
Under CAAACCGA stands -0.0264 E-score; under ATTCTCAC, 0.193 E-score.
ATGCGCGA gave a binding signal of -0.0205 E-score.
Under ACCCGTCT stands -0.171 E-score.
As for GAAATTTC, the figure is 0.128 E-score; as for CCGGCAAC, -0.129 E-score; as for AGTAATTC, 0.273 E-score.
As for TGACACCA, the figure is 0.0252 E-score.
Turning to AAGAAGGC, the binding signal was -0.29 E-score.
Under CTCTGACC stands -0.368 E-score; under CAGAGGAC, -0.183 E-score; under ACCCATAT, 0.0623 E-score.
The sequence CAACTTCA had a binding signal of 0.0498 E-score.
Under GACGAATA stands 0.0978 E-score.
Under GGTCCCTA stands -0.126 E-score; under CTCTTTAA, 0.03 E-score.
As for AGAGCTTG, the figure is -0.178 E-score.
AAGCACCA: the binding signal was -0.21 E-score.
As for CGCTCCGC, the figure is -0.161 E-score; as for CATTCCTA, 0.000602 E-score.
As for ACTTCATA, the figure is 0.236 E-score; as for CCACCAGC, -0.203 E-score; as for AAAGCACC, -0.103 E-score.
As for CGGCTGGC, the figure is -0.257 E-score; as for GCTAGCAC, -0.0307 E-score; as for CATTTTGC, -0.0411 E-score.
With AGCGGTGC, the binding signal was -0.275 E-score.
Under CAACTATC stands 0.156 E-score; under GCTATATA, 0.355 E-score; under AGGGGTGC, -0.343 E-score.
As for AATTTTCA, the figure is 0.109 E-score; as for CACATATC, -0.0359 E-score; as for CGTAGCGC, -0.128 E-score.
Under AAAGTAAA stands 0.197 E-score.
Take CATTGATA: the binding signal came to 0.26 E-score.
As for GCCCACCA, the figure is -0.364 E-score; as for CTTGCCTA, -0.152 E-score; as for TAACAGCA, 0.0222 E-score.
As for GCAACCGC, the figure is -0.193 E-score.
AATACACA: the binding signal was found to be 0.173 E-score.
As for ACCGATTC, the figure is 0.072 E-score; as for ACTGAACT, 0.0777 E-score.
In turn, ACCTGGTC yielded a binding signal of -0.207 E-score.
ATAATCAC: the binding signal turned out to be 0.217 E-score.
Under TGATCGCA stands -0.0559 E-score.
Under AGGGGCTC stands -0.288 E-score; under CATCTGAC, 0.00145 E-score; under ACAAGTTG, 0.046 E-score.
The sequence GACCAGGC returned a binding signal of -0.104 E-score.
As for GGTCTAAC, the figure is -0.0569 E-score.
For the sequence AAGTATGT, the binding signal was 0.13 E-score.
Under CCGGCTCG stands -0.334 E-score.
As for CCGCCTTC, the figure is -0.191 E-score; as for CGGAGGCC, -0.301 E-score.
Turning to CCTCTATC, the binding signal was -0.166 E-score.
As for TAATCGAA, the figure is 0.222 E-score; as for GCGCTGAC, -0.215 E-score; as for ACGTGGTC, -0.292 E-score.
The sequence CATGCCGA had a binding signal of 0.131 E-score.
Under AACTCTTA stands 0.13 E-score; under ACACAGTA, 0.137 E-score.
Under CACCTTAG stands -0.178 E-score; under ATAACACC, 0.253 E-score.
Under GACATCTA stands 0.128 E-score; under AGCGCCTG, -0.294 E-score.
Consider CTTGAGTA, for which the binding signal came out at 0.0201 E-score.
As for GGACGCAC, the figure is -0.212 E-score; as for TAAACGTA, 0.257 E-score.
In turn, ATGACTCC gave a binding signal of -0.034 E-score.
As for ATGCAAGC, the figure is -0.0317 E-score; as for GACGTAAC, -0.073 E-score.
Take GTTTCCCA: the binding signal was -0.06 E-score.
As for CGCCTGTA, the figure is 0.000307 E-score; as for GCAGTGAC, -0.235 E-score; as for ACAAAAAC, 0.124 E-score.
As for ATCTTATC, the figure is 0.143 E-score; as for ATTCGTAA, 0.211 E-score; as for ACCTAGGT, 0.0131 E-score.
GCGACAGA displayed a binding signal of -0.0213 E-score.
As for ATGTGCAG, the figure is -0.0615 E-score; as for ACTGTGCC, -0.0903 E-score; as for ACGAGCAG, -0.19 E-score.
As for AGGTTCCA, the figure is -0.0965 E-score.
As for ACGAGCGA, the figure is -0.172 E-score; as for CGGCAAAG, -0.346 E-score.
As to GCACGCCC, the binding signal is -0.349 E-score.
As for CTGGCCTC, the figure is -0.315 E-score; as for GATTGAAC, -0.046 E-score.
Under AACGAGTG stands 0.0432 E-score.
Under ATATCCCA stands 0.184 E-score; under CGCAAGAG, 0.0284 E-score; under TACCTCAA, 0.133 E-score.
CGCTTTGC gave a binding signal of -0.256 E-score.
As for AACATTCT, the figure is 0.135 E-score.
As for AGCCGGAA, the figure is -0.0919 E-score; as for CATTCCCA, -0.0834 E-score.
As for CGCAAAAG, the figure is -0.0768 E-score.
In turn, AAAAACCC had a binding signal of 0.157 E-score.
As for CTACCATC, the figure is 0.421 E-score; as for CAACCGCG, -0.0951 E-score; as for ATACTTCC, 0.264 E-score.
Under CAAGCGGG stands -0.388 E-score; under AACTCACT, 0.0823 E-score; under ACGTGGAT, -0.0764 E-score.
As for AGATACTA, the figure is 0.316 E-score; as for GAGGCTTA, -0.241 E-score; as for CGCGAGGA, -0.266 E-score.
GTAGAAGA: the binding signal was 0.304 E-score.
The sequence GACGATGA came in with a binding signal of -0.192 E-score.
As for CATCATGC, the figure is -0.0679 E-score.
As for CCTTAGGA, the figure is 0.047 E-score; as for AAACTTTC, 0.181 E-score; as for ACACATAA, 0.133 E-score.
CACCCGAA: the binding signal was -0.177 E-score.
As for GCGGGGAC, the figure is -0.343 E-score; as for AATCGAGG, 0.182 E-score.
For the sequence CGTGAGCC, the binding signal was -0.289 E-score.
Under AGTTCGTC stands 0.0996 E-score; under AGCCGTGA, -0.124 E-score; under CACAAGCG, 0.0221 E-score.
As for AAGTTTCT, the figure is 0.261 E-score; as for AGAATGAG, 0.0362 E-score.
Under ACAGTGTG stands -0.0809 E-score; under GCAATTAC, 0.13 E-score.
Turning to ACTGATCA, the binding signal came out at 0.0266 E-score.
AATACGAC: the binding signal was determined as 0.0254 E-score.
As for AACGCCGT, the figure is -0.0527 E-score; as for ACACATCT, 0.11 E-score.
As for AGACGCAT, the figure is -0.121 E-score; as for ATCAGCAA, 0.0758 E-score; as for ACTGTGAT, 0.117 E-score.
As for ACGATAGC, the figure is 0.223 E-score; as for ATATCGTA, 0.263 E-score; as for AATAAGAC, 0.0721 E-score.
GGAGAATA displayed a binding signal of 0.0969 E-score.
As for TATTTTCA, the figure is 0.154 E-score; as for GCTAATCA, -0.0222 E-score.
